Assay results reported in the supplement of paper PMC11417369.
The list shows a part of the results.

system: PfSIP2 AP2 domain 1 (GST-tagged); test: gcPBM binding intensity (ln(normalized median fluorescence intensity)); higher = stronger DNA binding
In short: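 GST-tagged P. falciparum DNA-binding domains produced in E. coli were incubated for 1 h on an Agilent 4 × 180k array of primer-extended double-stranded 36-bp intergenic genomic probes with negative controls. Binding intensity is the highest Masliner-normalised natural-log median intensity across replicate spots of either probe orientation, with bound protein detected by Alexa488 anti-GST antibody at 488 nm.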

Sequence | gcPBM binding intensity (ln)
CATACATACGGACACACACACATATATATATATATA [CACACA_site5598] | 9.3
AAAAAAGAAAAAAGGACACACATAAATATACTCACG [CACACA_site2904] | 6.85
ATAATGTTTCTTTCAACACACAAAAAATGAACACAT [CACACA_site1552] | 7.22
AAAAAAAAAAAATAGACCTCCTAAGCAAAAGAAAAA [GTGCAC_negctrl_site634] | 6.77
TATATAAGCGCATGCACACGCAAAGGTATATAAATA [CACACA_site622] | 7.12
TAATGACTGAAAAATTGTACATATGTATATATGTAT [XGTACX_site2415] | 7.05
ATTCTATTATAATATTCACACACTAACGTAAATCAT [CACACA_site2750] | 7.21
TATACATACATACATACACACACACCGATATATATA [CACACA_site7896] | 7.52
ATAATTTTCCATATTTGTACATATTTTTTTCCCTTG [XGTACX_site8146] | 6.95
TTTTCAATTAATAATACACACATGTATTTATTATTA [CACACA_site5774] | 6.77
AATTATATACATAAGTGTACATAATATATAAACATA [XGTACX_site793] | 6.88
TGTTGTAAATTAAAGACATGCACGTGAGAAAATATA [TGCATGCA_site285] | 8.71
TTTTCTATGCTAAACACACTCATTGTTACAAGTTTT [CACACA_site5531] | 7.02
TATATATATTTTATATGTACGTATGGAACAATATGA [XGTACX_site8167] | 7.38
TTATTTATTTTTTATACACACAATTATCATTTTAAG [CACACA_site22] | 7.09
TATACTAAGAAGTATTTACACACCAACAAGGCGAAA [CACACA_site8963] | 6.68
TAAGTTTATTGAAATTGTACAAACATAAATGTAAAA [XGTACX_site162] | 6.93
TTATATTTTTTTTTTTCACACACATTTATATTGTAT [CACACA_site9025] | 6.83
AAATTAAGTATATATTGTACACATAATATGATTGTA [XGTACX_site3083] | 6.9
TTATTTTCATATAGGTGTACATAAAAATATTCTTAT [XGTACX_site8861] | 7.26
TATCATAAAAAATATACACACAAAGGATATATATAT [CACACA_site1571] | 8.52
ATGTTCATTATATGCACACATATATATAAATGTAAT [CACACA_site2908] | 7.31
TTAATTAGAAATCATACACACATATAAATAAATATA [CACACA_site6225] | 6.7

Sequence | gcPBM binding intensity (ln)
TATTTGTTTGTTCGGGTGCTTACATATATTCTTATA [GTGCAC_site9972] | 8.25
TGTGCCTATAAATTAACACACAGAAATATATAGAGA [CACACA_site818] | 7.04
TTATTCTGACAGAATTGTACTAATGTCTTTAAAAAA [XGTACX_site1256] | 6.7
GAGAAATGGGGACACACACACATATTATATATATAT [CACACA_site4943] | 9.04
TATATATATCTGTACACACACACATATAAATAAATA [CACACA_site4405] | 7.59
AAGCACAAAAAATACACACACAAAAAATAAAAAAAG [CACACA_site1840] | 7.06
TATATGCATAATAACTGTACACAAATTGGGGTTGAT [XGTACX_site459] | 7.28
ATATAAATATATGTATGTACGCATGTATGTATCTAT [XGTACX_site3290] | 7.16
ATGTATGTTTGTTATGCACACAAATGCATCTTATTT [CACACA_site8861] | 9.58
ATAATGAACAATATTATATATAAAATATAATTTATA [GTGCAC_negctrl_site564] | 6.72
ATTATGTATACATAAACACACATATATATAAAAAAA [CACACA_site262] | 7.03
ATTATATATATGTGCACACAAAAGATATATATATAT [CACACA_site5205] | 9.44
AAATAATTTACTTAATGTACATATATATATATATAT [XGTACX_site8594] | 9.59
ATATTTATTTGTTAGTGTACATACATATATATATAT [XGTACX_site1347] | 9.24
TTTTAATTTATTTATGCACACATATATAATTACACA [CACACA_site8126] | 7.52
AAAAATAAACAATATATAGTTATATATATATATATA [TGCATGCA_negctrl_site82] | 9.71
TGTTTAAAAATAATTTGTACATATATTTTATTTCAT [XGTACX_site1272] | 6.92
ATAAAGAAATAAAGTTGTACATTATATATATATATA [XGTACX_site7729] | 9.2
AATAATTTTTTAAACACACACACATATATATATATA [CACACA_site95] | 9.29
AATACATACGGACACACACACACATATATATATATA [CACACA_site5884] | 9.59
TCTTTTGTTTAACCTACATGCAGAATATAAGTCTTC [TGCATGCA_site99] | 7.43
ATTCATTATTCACCTTGTACACAAATGATTATCGTA [XGTACX_site455] | 7.22
TTTGTTCTTTTAATGTGTACATATACACTTGTAATA [XGTACX_site2635] | 7.29

Sequence | gcPBM binding intensity (ln)
AAAAAAAAAAGAAACACACACATTTGTCTATAATAT [CACACA_site7063] | 6.8
ATGTATGCAAAAATGGTGCATATTAAATGTATAACA [GTGCAC_site9722] | 11.1
TGACCTTATGTGTTTTGAAGGGGAAAGGAAATGCGC [XGTACX_negctrl_site411] | 6.86
TATAAAAATAGGATTTGTACATATAAAAAAGGAAAA [XGTACX_site8678] | 7
TAATATAAAAAAGGTACTACACGAAGGAATAAAAAT [XGTACX_site6872] | 7.36
CAGAAATAGAGATACACACACACATATATTTATGTA [CACACA_site3968] | 6.91
TATAAATATATGTATGCACACATTTTTTTTGGAAAA [CACACA_site1070] | 8.1
GGTATAATTCATATAACACACATTTCAATGTTAAAA [CACACA_site2172] | 6.99
TGTATTAATTTGTAATGTACACATATATGTATTATA [XGTACX_site4152] | 7.08
TAAGTAAACTTTCTATGTACATATTTTCAAATATTA [XGTACX_site6260] | 7.05
CTTATATATACATATACACACACACCCATATATATA [CACACA_site8705] | 7.48
TTAACAAAATTTTTAACACACAAAAAAAAAAAAAAA [CACACA_site1828] | 6.92
ATGTAGACAACATATGAACACACAAAATATTTTTTT [CACACA_site8955] | 7.16
CCAAAATTTATAAATTGTACATATTTTTAAATTCTT [XGTACX_site833] | 6.93
ATAAAAGAATTAAATAATCAAAATGATTATTTTATA [CACACA_negctrl_site466] | 6.45
GATAAATAATAATAAGGTACACATAAAATATTCCTT [XGTACX_site2963] | 6.86
TATATATATATAATTACACACAATGTTCTATATATA [CACACA_site3235] | 8.75
TATTTATTTAATTACACACGAACATATAACCATTTC [CACACA_site211] | 7.2
TGTAGACTACATAGTAGTACATAATATATACATATA [XGTACX_site367] | 6.9
TTTTCTTTTAAACATATATATATATATATATATATA [XGTACX_negctrl_site559] | 9.52
GTTGAAAAAAAAAATGCACACGCATACATATAATAT [CACACA_site8117] | 7.39
ATTTCTTTGCTTTTCAAACACACAAAAGTTATTATA [CACACA_site520] | 7.24
TTTTTTGTATTTTTCACACACTCTCTATCTCTCTCA [CACACA_site2095] | 6.75

Sequence | gcPBM binding intensity (ln)
AAAAAAAAAAAAAAAACACACATATATATTATTGTA [CACACA_site3979] | 7.44
GAATATTACATGTATTGTACAGGTAATGTTAAAAAT [XGTACX_site8274] | 6.96
TAACATAAATCCATACGTACCTATATATATATAATA [XGTACX_site2626] | 7.05
ATTTATATTAAAAGTGTGCACTTTTTTTTTTTTTTT | 10.1
TCATTCCATACTTTAACACACAAATATATTTAATCC [CACACA_site145] | 7.07
TTTTTTTTTTTGTTTTGTACATAAATTGCAACCAAT [XGTACX_site8949] | 7.33
ATATATATATATATATGTACATATTCACTTATATTT [XGTACX_site5324] | 9.47
TAATCATAAAAAAATACACACATATAAAATATAGAT [CACACA_site7020] | 6.91
ATATTTATAAATTGCACACAAATAATAACATTATAT [CACACA_site5322] | 7.13
AAAAGTTAAGCAACAAATTTTATTTCTTATATATAA [TGCATGCA_negctrl_site134] | 6.86
AAAATTCTTATAAGATGTACAATTTGTAACACTATA [XGTACX_site510] | 7
TCACATACATTACTTACACACCATATTAAGATATAC [CACACA_site4415] | 7.29
AAATAAATATATAATACACACAAAAATATAAAATGT [CACACA_site3711] | 7.26
TTTTGTATATATTATTGTACTTTTAATATAGATCGT [XGTACX_site5830] | 7.37
TTATACTCACGTTACACACACACAATATATATATAT [CACACA_site4137] | 9.17
TTTTTTACAACACGAAAATGAACAATTATAATAAAT [TGCATGCA_negctrl_site301] | 6.97
AGTAAAAAAAATATCTGTACATATTAATATAAATGT [XGTACX_site6234] | 7.11
AAATATTATTCTTTTATTTTTAAACATATAATTATA [GTGCAC_negctrl_site136] | 6.82
TTATACACTGATAAAAGTACATTTGTATGTTTTTTT [XGTACX_site8959] | 6.78
ATCTAAAAATTTTACGCACACAAGTAAAAAAAAAAA [CACACA_site2485] | 7.25
